Hit rate of the full screen: of about 360,000 compounds, about 16,000 (4.4%) were called active. The inconclusive results got no clear call from the source; some entries with a clear call stand among them for comparison. The call rests on the fitted dose curve; in most records, active means well fitted inhibition curve with a large enough effect; inconclusive means small, poorly fitted or top-dose-only effect; inactive means no such curve, though single readings can be large or run the other way. Potencies of inconclusive entries are doubtful fits and often do not repeat.
These compounds were tested against Bromodomain adjacent to zinc finger domain protein 2B (Homo sapiens) (UniProt Q9UIF8) (assay: qHTS Assay for Inhibitors of BAZ2B). Settings: AlphaScreen BAZ2B-H3K14Ac peptide displacement; activity change, negative = inhibition: at 114 µM (top of the series).
Sequence of UniProt Q9UIF8 (Q9UIF8 whole entry, looked up, the tested form may be a part): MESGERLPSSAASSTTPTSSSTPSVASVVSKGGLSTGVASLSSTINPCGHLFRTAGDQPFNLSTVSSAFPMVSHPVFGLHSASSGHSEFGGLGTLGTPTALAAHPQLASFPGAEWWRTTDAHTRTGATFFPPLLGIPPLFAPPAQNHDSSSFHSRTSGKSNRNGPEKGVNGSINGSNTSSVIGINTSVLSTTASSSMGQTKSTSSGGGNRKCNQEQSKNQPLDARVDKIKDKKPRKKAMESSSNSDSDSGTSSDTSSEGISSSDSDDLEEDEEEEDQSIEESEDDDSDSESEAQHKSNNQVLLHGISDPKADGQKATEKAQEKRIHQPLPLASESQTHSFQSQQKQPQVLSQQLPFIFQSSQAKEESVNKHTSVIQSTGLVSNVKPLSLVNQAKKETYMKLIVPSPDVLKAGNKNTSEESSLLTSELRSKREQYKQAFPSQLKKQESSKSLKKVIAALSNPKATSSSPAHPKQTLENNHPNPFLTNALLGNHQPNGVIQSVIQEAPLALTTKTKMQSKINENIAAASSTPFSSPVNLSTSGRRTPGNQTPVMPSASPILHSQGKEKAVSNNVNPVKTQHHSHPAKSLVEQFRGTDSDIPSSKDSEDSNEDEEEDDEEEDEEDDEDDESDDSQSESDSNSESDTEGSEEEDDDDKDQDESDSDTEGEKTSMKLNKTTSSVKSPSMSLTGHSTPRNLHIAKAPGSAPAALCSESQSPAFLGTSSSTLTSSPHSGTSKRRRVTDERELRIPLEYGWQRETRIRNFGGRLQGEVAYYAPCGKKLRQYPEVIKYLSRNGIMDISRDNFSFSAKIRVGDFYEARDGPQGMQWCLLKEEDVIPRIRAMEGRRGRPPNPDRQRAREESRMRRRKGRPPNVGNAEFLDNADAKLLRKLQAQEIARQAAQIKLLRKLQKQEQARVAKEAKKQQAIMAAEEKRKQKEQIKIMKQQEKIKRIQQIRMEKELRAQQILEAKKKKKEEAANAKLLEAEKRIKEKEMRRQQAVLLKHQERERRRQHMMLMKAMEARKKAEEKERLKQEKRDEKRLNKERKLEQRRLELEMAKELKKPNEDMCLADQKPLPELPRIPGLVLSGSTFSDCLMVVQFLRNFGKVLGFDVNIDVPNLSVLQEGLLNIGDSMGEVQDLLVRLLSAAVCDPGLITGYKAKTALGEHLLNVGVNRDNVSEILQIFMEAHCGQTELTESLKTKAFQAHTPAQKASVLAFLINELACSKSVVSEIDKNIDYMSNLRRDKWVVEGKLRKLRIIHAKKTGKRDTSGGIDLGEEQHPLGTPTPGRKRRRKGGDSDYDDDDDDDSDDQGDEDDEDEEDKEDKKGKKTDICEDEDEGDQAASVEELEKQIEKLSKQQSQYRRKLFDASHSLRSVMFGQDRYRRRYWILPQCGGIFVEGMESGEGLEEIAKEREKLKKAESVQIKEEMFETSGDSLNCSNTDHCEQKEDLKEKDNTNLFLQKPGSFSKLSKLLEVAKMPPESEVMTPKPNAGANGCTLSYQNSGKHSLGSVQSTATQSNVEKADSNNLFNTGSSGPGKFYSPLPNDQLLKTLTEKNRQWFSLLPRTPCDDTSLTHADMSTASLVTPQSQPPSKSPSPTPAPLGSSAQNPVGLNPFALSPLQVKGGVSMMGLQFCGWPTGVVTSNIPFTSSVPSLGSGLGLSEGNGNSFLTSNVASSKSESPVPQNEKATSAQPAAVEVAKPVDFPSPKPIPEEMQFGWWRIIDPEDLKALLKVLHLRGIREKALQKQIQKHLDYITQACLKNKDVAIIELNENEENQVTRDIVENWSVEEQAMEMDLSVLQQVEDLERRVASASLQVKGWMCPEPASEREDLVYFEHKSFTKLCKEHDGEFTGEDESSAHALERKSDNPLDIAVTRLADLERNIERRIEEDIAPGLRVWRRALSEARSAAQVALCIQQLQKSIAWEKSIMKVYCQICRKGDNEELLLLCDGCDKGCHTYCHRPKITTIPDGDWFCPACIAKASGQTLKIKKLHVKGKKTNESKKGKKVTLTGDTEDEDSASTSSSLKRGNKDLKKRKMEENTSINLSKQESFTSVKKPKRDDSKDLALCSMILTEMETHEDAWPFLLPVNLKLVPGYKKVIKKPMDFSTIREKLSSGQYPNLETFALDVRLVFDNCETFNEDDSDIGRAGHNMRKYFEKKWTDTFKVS
Outline: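 Protein-peptide AlphaScreen: BAZ2B 50 nM, b-H3K14Ac 50 nM, 1x PBS pH 7.4 + 0.01% Tween-20. Preincubation 30 min RT; cpd 30 min RT (top 110 uM); beads 20 min RT, light-protected.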
Further: nearly all actives have a fitted effect of over 60% in size.
On the % scale 0 is the no-effect control and ±100 the full control effect; potency means the concentration at half of the fitted maximal effect; tags describe the fitted curve by direction and shape.

| Structure (SMILES) | activity change, negative = inhibition | Potency |
| --- | --- | --- |
| CC(=O)Nc1ccccc1C | inactive: 0.149% | – |
| O=C(CNCc1ccc(Cl)cc1)Nc1ccc2c(c1)OCCO2 | – | active: 56.2 µM |
| O=C(/C=C/c1ccco1)N1CCC(Cc2ccccc2)CC1 | – | active: 50.1 µM |
| CSc1ccccc1NC(=O)CN1CCN(S(=O)(=O)c2ccccc2[N+](=O)[O-])CC1 | inactive: 0.771% | – |
| Cc1cc2c(ncn2Cc2ccccc2)c(N)c1C | – | active: 70.8 µM |
| Cc1ccc(NC(=O)c2ccc3nc(Cc4ccccc4)oc3c2)cc1F | inactive: -0.495% | – |
| CCCCN(C)CCNC(=O)Cn1ncc2c3ccccc3n(CCC)c2c1=O | inactive: -1.79% | – |
| COc1cc(NC(=O)CCCc2c[nH]c3ccccc23)cc(OC)c1 | – | inconclusive: 44.7 µM [inhibitor, partial curve] |
| Cc1ccc(CS(=O)Cc2ccc(C(=O)N3CCN(c4ccccn4)CC3)o2)cc1 (configuration not stated) | inactive: 0.517% | – |
| S=C(NCCc1ccccc1)N1CCN(Cc2ccccc2)CC1 | – | active: 56.2 µM |
| CCn1c(N)c(C(=O)NCCCOC)sc1=S | – | inconclusive: 89.1 µM [inhibitor, single point] |
| COc1ccccc1C(=O)NC(CCSC)C(=O)OCC(=O)NC(=O)NCc1ccco1 (configuration not stated) | – | active: 50.1 µM |
| CCOC(=O)C(C)Oc1ccc2c(-c3cccc([N+](=O)[O-])c3)cc(=O)oc2c1 (configuration not stated) | inactive: -12.7% | – |
| O=C(CN1C(=O)C2C3C=CC(C4CC34)C2C1=O)OCC(=O)c1ccccc1 (configuration not stated) | inactive: 2.76% | – |
| CCOC(=O)c1c(-c2cccc(N)c2)cn2ccccc12 | – | inconclusive: 50.1 µM [inhibitor, partial curve] |
| O=S(=O)(c1ccc(F)cc1)N1CCN(CC2CC3C=CC2C3)CC1 (configuration not stated) | – | active: 50.1 µM |
| Cc1ccc(NC(=S)N(CCN2CCOCC2)Cc2ccccc2F)cc1Cl | – | inconclusive: 79.4 µM [inhibitor, single point] |
| COc1cc(OC)cc(C(=O)Nc2ccc3nc(N4CCC(C)CC4)cc(C)c3c2)c1 | inactive: -8.97% | – |
| COc1cccc(C(=O)Nc2nnc(S(=O)(=O)N3CCOCC3)s2)c1 | – | inconclusive: 3.16 µM [inhibitor, full curve, poor fit] |
| CCCC(c1nnnn1CCOC)N1CCN(C(=O)c2ccco2)CC1 (configuration not stated) | – | inconclusive: 89.1 µM [inhibitor, single point] |
| Cn1c(=O)n(C)c2cc(N3CCOCC3)c(NC(=O)c3ccc(F)cc3)cc21 | – | inconclusive: 89.1 µM [inhibitor, single point] |
| Cn1c(CCN2CCCCC2)nc2cc(NC(=O)COc3ccc([N+](=O)[O-])cc3)ccc21 | inactive: -5.81% | – |
| CCOc1ccc(N/C(=C(/C(Cl)=C(Cl)Cl)[N+](=O)[O-])n2cncn2)cc1 | – | active: 8.91 µM |
| C=CCNC(=O)N1CCC(c2nc3ccccc3s2)CC1 | inactive: -0.579% | – |
| Cc1ccccc1CNC(=O)CCCn1nc(C)c2sc3ccccc3c2c1=O | inactive: -3.88% | – |
| Oc1ccc(-c2csc(-c3cccnc3)n2)cc1O | – | active: 44.7 µM |

| Structure (SMILES) | activity change, negative = inhibition | Potency |
| --- | --- | --- |
| CCn1c(CC(=O)Nc2ccc(F)cc2)nnc1SCC(=O)NC1CCCC1 | inactive: 5.07% | – |
| COC(=O)CCSCc1cn2cc(Cl)ccc2n1 | inactive: 3.91% | – |
| CN1C(=S)SC(C)(NO)C1(C)C (configuration not stated) | – | inconclusive: 89.1 µM [inhibitor, single point] |
| COc1ccc(OC)c(/C=C/C(=O)c2ccc3c(c2)OCCO3)c1 | – | inconclusive: 89.1 µM [inhibitor, single point] |
| Cc1nn(-c2ccccc2)c(C)c1C(=O)OCc1ccc(C#N)cc1 | inactive: 10.2% | – |
| CCN1C(=O)c2ccccc2Sc2ccc(NC(=O)c3ccc(C)c(F)c3)cc21 | inactive: 0.669% | – |
| O=C(COc1ccc(Cl)cc1)NCCNC(=O)c1ccccn1 | inactive: 0.229% | – |
| COC(=O)NC1CCS(=O)(=O)C1 (configuration not stated) | inactive: -6.17% | – |
| COc1ccccc1/C(C)=N/NC(=S)NCc1ccccc1 | – | inconclusive: 50.1 µM [inhibitor, partial curve] |
| C/C(CCc1ccc2c(c1)OCO2)=N\NC(=S)NC(C)C | – | inconclusive: 28.2 µM [inhibitor, partial curve] |
| N#CC(C#N)=c1ccc2c(c1)NC1(CCCCC1)N=2 | – | active: 12.6 µM |
| Cc1ccc(C)c(N2CCN(C(=O)c3ccc4c(Cl)c5c(nc4c3)CCCC5)CC2)c1 | – | inconclusive: 25.1 µM [inhibitor, full curve] |
| CC(/C=N/Nc1ccc2nncn2n1)=C\c1ccccc1 | – | inconclusive: 89.1 µM [inhibitor, single point] |
| Cc1cc2ccccn2c1C(=O)c1ccc(NN)c([N+](=O)[O-])c1 | – | active: 17.8 µM |
| Cc1nc2ccccc2n1S(=O)(=O)c1ccc(S(=O)(=O)N2CCCCCC2)cc1 | – | inconclusive: 89.1 µM [inhibitor, single point] |
| Cc1[nH][nH]c(=O)c1C(c1ccc(-c2ccc(Cl)cc2)o1)c1c(C)[nH][nH]c1=O | – | inconclusive: 50.1 µM [inhibitor, partial curve] |
| CNC(=O)/C=C1\NC(C)(C)Cc2c1ccc1ccccc21 | inactive: -6.99% | – |
| Cc1cccc(NC(=O)c2ccc(-c3ccccc3[N+](=O)[O-])o2)c1 | – | inconclusive: 39.8 µM [inhibitor, full curve] |
| C(=N\N1CCN(Cc2cccc3ccccc23)CC1)/c1ccco1 | – | inconclusive: 39.8 µM [inhibitor, single point] |
| C/C(=N\NC(=O)c1cc(C2CC2)nc2ccccc12)c1ccc(O)cc1O | – | active: 3.55 µM |
| CCN(CCO)c1ccc(N=Nc2cc(C)[nH]n2)cc1 | – | inconclusive: 50.1 µM [inhibitor, partial curve] |
| COc1ccc(N2CCN(C(c3ccccc3)c3nnc(-c4ccccc4Cl)o3)CC2)cc1 (configuration not stated) | – | active: 39.8 µM |
| Cn1cnc([N+](=O)[O-])c1S(=O)(=O)c1cccc(Cl)c1 | inactive: -0.157% | – |
| Cc1ccc(-c2c(C#N)c(N)nc3c2CCCC3)o1 | – | inconclusive: 89.1 µM [inhibitor, single point] |
| CC(=O)NN1C(=O)/C(=C\c2ccc(Br)o2)SC1=S | – | inconclusive: 70.8 µM [inhibitor, single point] |
| O=c1c2cnn(-c3ccccc3)c2nc(-c2ccco2)n1-c1ccccc1 | – | inconclusive: 79.4 µM [inhibitor, single point] |

Reference: PubChem BioAssay AID504333 (National Center for Advancing Translational Sciences (NCATS), 2011)
